In the supplement of paper PMC10369915:
The list shows a part of the results. No stated cut-off is given here; in the data, active = 3.2 or more and inactive = the rest. The signal is at background level for most entries.

target: SHP2 C-SH2 domain E139D; assay: enrichment score (SH2-bound / input frequency) (ratio); bacterial display of known human phosphotyrosine sites (pTyr-Var adds point mutants) read by sequencing; higher = stronger binding; tyrosines were phosphorylated by kinases first; conditions: peptide library: pTyr-Var
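Further: displayed peptides selected on beads carrying the immobilized SH2 domain, with library peptides lacking any tyrosine serving as negative controls.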

| Binder | enrichment score |
| --- | --- |
| DRLASYLEKVR [KRT13_Y118] | inactive: 0.943 |
| VLRRVYVDFEG [KMT2B_Y1707] | inactive: 0.839 |
| DSLASYLDKVR [KRT10_Y160_R156S] | inactive: 1.09 |
| SGGSSYGSGGG [KRT1_Y532] | inactive: 0.466 |
| SFTDPYAQPSL [KMT2D_Y2378_P2382S_YF] | inactive: 0.631 |
| HFVDEYDQTIE [KRAS_Y32_P34Q] | inactive: 0.766 |
| LEIETYRRLRD [KRT12_Y429_L433R] | inactive: 0.39 |
| DRLPSYLDKVR [KRT12_Y139_A137P] | inactive: 0.871 |
| LEIETCRRLLD [KRT12_Y429_Y429C] | inactive: 0.872 |
| PSARTYCFKQE [KLHDC9_Y175_YF] | inactive: 0.99 |
| SYTDPYAQPPL [KMT2D_Y2378] | inactive: 0.611 |
| EVKAQYEDIAQ [KRT1_Y358] | inactive: 0.652 |
| TKVVHYWKWIK [KLK2_Y249_R250W] | inactive: 2.88 |
| QEIATYRRLQE [KRT14_Y415_L419Q] | inactive: 0.41 |
| NFSKMYCNPDA [KNL1_Y489_A486S_YF] | inactive: 0.911 |
| KIRDWYQRQRP [KRT14_Y151] | inactive: 0.623 |
| SFTDPYAQPPL [KMT2D_Y2378_YF] | inactive: 0.537 |
| DILASYLDKVR [KRT12_Y139_R135I] | inactive: 1.23 |
| SGGCSYGSGGG [KRT1_Y539_G537C] | inactive: 0.567 |

target: SHP2 C-SH2 domain wild-type; assay: as above; conditions: peptide library: pTyr-Var

| Binder | enrichment score |
| --- | --- |
| DRLASYLEKVR [KRT13_Y118] | inactive: 0.808 |
| VLRRVYVDFEG [KMT2B_Y1707] | inactive: 0.786 |
| DSLASYLDKVR [KRT10_Y160_R156S] | inactive: 0.833 |
| SGGSSYGSGGG [KRT1_Y532] | inactive: 0.468 |
| SFTDPYAQPSL [KMT2D_Y2378_P2382S_YF] | inactive: 0.534 |
| HFVDEYDQTIE [KRAS_Y32_P34Q] | inactive: 0.721 |
| LEIETYRRLRD [KRT12_Y429_L433R] | inactive: 0.362 |
| DRLPSYLDKVR [KRT12_Y139_A137P] | inactive: 0.857 |
| LEIETCRRLLD [KRT12_Y429_Y429C] | inactive: 1.74 |
| PSARTYCFKQE [KLHDC9_Y175_YF] | inactive: 1.05 |
| SYTDPYAQPPL [KMT2D_Y2378] | inactive: 0.6 |
| EVKAQYEDIAQ [KRT1_Y358] | inactive: 0.43 |
| TKVVHYWKWIK [KLK2_Y249_R250W] | inactive: 2.94 |
| QEIATYRRLQE [KRT14_Y415_L419Q] | inactive: 0.495 |
| NFSKMYCNPDA [KNL1_Y489_A486S_YF] | inactive: 0.733 |
| KIRDWYQRQRP [KRT14_Y151] | inactive: 0.66 |
| SFTDPYAQPPL [KMT2D_Y2378_YF] | inactive: 0.567 |
| DILASYLDKVR [KRT12_Y139_R135I] | inactive: 1.17 |
| SGGCSYGSGGG [KRT1_Y539_G537C] | inactive: 0.732 |

target: SHP2 N-SH2 domain L43F; assay: as above; conditions: peptide library: pTyr-Var

| Binder | enrichment score |
| --- | --- |
| DRLASYLEKVR [KRT13_Y118] | inactive: 0.913 |
| VLRRVYVDFEG [KMT2B_Y1707] | inactive: 0.817 |
| DSLASYLDKVR [KRT10_Y160_R156S] | inactive: 0.981 |
| SGGSSYGSGGG [KRT1_Y532] | inactive: 0.419 |
| SFTDPYAQPSL [KMT2D_Y2378_P2382S_YF] | inactive: 0.705 |
| HFVDEYDQTIE [KRAS_Y32_P34Q] | inactive: 0.906 |
| LEIETYRRLRD [KRT12_Y429_L433R] | inactive: 0.453 |
| DRLPSYLDKVR [KRT12_Y139_A137P] | inactive: 1 |
| LEIETCRRLLD [KRT12_Y429_Y429C] | inactive: 1.35 |
| PSARTYCFKQE [KLHDC9_Y175_YF] | inactive: 0.669 |
| SYTDPYAQPPL [KMT2D_Y2378] | inactive: 0.534 |
| EVKAQYEDIAQ [KRT1_Y358] | inactive: 0.511 |
| TKVVHYWKWIK [KLK2_Y249_R250W] | active: 3.65 |
| QEIATYRRLQE [KRT14_Y415_L419Q] | inactive: 0.521 |
| NFSKMYCNPDA [KNL1_Y489_A486S_YF] | inactive: 0.594 |
| KIRDWYQRQRP [KRT14_Y151] | inactive: 0.576 |
| SFTDPYAQPPL [KMT2D_Y2378_YF] | inactive: 0.591 |
| DILASYLDKVR [KRT12_Y139_R135I] | inactive: 1.37 |
| SGGCSYGSGGG [KRT1_Y539_G537C] | inactive: 0.655 |

target: SHP2 N-SH2 domain T42A; assay: as above; conditions: peptide library: pTyr-Var

| Binder | enrichment score |
| --- | --- |
| DRLASYLEKVR [KRT13_Y118] | inactive: 0.841 |
| VLRRVYVDFEG [KMT2B_Y1707] | inactive: 0.75 |
| DSLASYLDKVR [KRT10_Y160_R156S] | inactive: 0.75 |
| SGGSSYGSGGG [KRT1_Y532] | inactive: 0.529 |
| SFTDPYAQPSL [KMT2D_Y2378_P2382S_YF] | inactive: 0.526 |
| HFVDEYDQTIE [KRAS_Y32_P34Q] | inactive: 0.542 |
| LEIETYRRLRD [KRT12_Y429_L433R] | inactive: 0.296 |
| DRLPSYLDKVR [KRT12_Y139_A137P] | inactive: 0.76 |
| LEIETCRRLLD [KRT12_Y429_Y429C] | inactive: 0.707 |
| PSARTYCFKQE [KLHDC9_Y175_YF] | inactive: 0.696 |
| SYTDPYAQPPL [KMT2D_Y2378] | inactive: 0.406 |
| EVKAQYEDIAQ [KRT1_Y358] | inactive: 0.457 |
| TKVVHYWKWIK [KLK2_Y249_R250W] | active: 3.69 |
| QEIATYRRLQE [KRT14_Y415_L419Q] | inactive: 0.625 |
| NFSKMYCNPDA [KNL1_Y489_A486S_YF] | inactive: 0.667 |
| KIRDWYQRQRP [KRT14_Y151] | inactive: 0.599 |
| SFTDPYAQPPL [KMT2D_Y2378_YF] | inactive: 0.496 |
| DILASYLDKVR [KRT12_Y139_R135I] | inactive: 1.04 |
| SGGCSYGSGGG [KRT1_Y539_G537C] | inactive: 0.679 |

target: SHP2 N-SH2 domain T52S; assay: as above; conditions: peptide library: pTyr-Var

| Binder | enrichment score |
| --- | --- |
| DRLASYLEKVR [KRT13_Y118] | inactive: 0.803 |
| VLRRVYVDFEG [KMT2B_Y1707] | inactive: 0.885 |
| DSLASYLDKVR [KRT10_Y160_R156S] | inactive: 0.905 |
| SGGSSYGSGGG [KRT1_Y532] | inactive: 0.434 |
| SFTDPYAQPSL [KMT2D_Y2378_P2382S_YF] | inactive: 0.659 |
| HFVDEYDQTIE [KRAS_Y32_P34Q] | inactive: 0.428 |
| LEIETYRRLRD [KRT12_Y429_L433R] | inactive: 0.379 |
| DRLPSYLDKVR [KRT12_Y139_A137P] | inactive: 0.943 |
| LEIETCRRLLD [KRT12_Y429_Y429C] | inactive: 1.02 |
| PSARTYCFKQE [KLHDC9_Y175_YF] | inactive: 0.773 |
| SYTDPYAQPPL [KMT2D_Y2378] | inactive: 0.583 |
| EVKAQYEDIAQ [KRT1_Y358] | inactive: 0.447 |
| TKVVHYWKWIK [KLK2_Y249_R250W] | inactive: 3.11 |
| QEIATYRRLQE [KRT14_Y415_L419Q] | inactive: 0.676 |
| NFSKMYCNPDA [KNL1_Y489_A486S_YF] | inactive: 0.818 |
| KIRDWYQRQRP [KRT14_Y151] | inactive: 0.692 |
| SFTDPYAQPPL [KMT2D_Y2378_YF] | inactive: 0.562 |
| DILASYLDKVR [KRT12_Y139_R135I] | inactive: 1.38 |
| SGGCSYGSGGG [KRT1_Y539_G537C] | inactive: 0.529 |

target: SHP2 N-SH2 domain wild-type; assay: as above; conditions: peptide library: pTyr-Var

| Binder | enrichment score |
| --- | --- |
| DRLASYLEKVR [KRT13_Y118] | inactive: 1.09 |
| VLRRVYVDFEG [KMT2B_Y1707] | inactive: 0.789 |
| DSLASYLDKVR [KRT10_Y160_R156S] | inactive: 1.01 |
| SGGSSYGSGGG [KRT1_Y532] | inactive: 0.677 |
| SFTDPYAQPSL [KMT2D_Y2378_P2382S_YF] | inactive: 0.564 |
| HFVDEYDQTIE [KRAS_Y32_P34Q] | inactive: 0.831 |
| LEIETYRRLRD [KRT12_Y429_L433R] | inactive: 0.418 |
| DRLPSYLDKVR [KRT12_Y139_A137P] | inactive: 0.932 |
| LEIETCRRLLD [KRT12_Y429_Y429C] | inactive: 2.34 |
| PSARTYCFKQE [KLHDC9_Y175_YF] | inactive: 1.3 |
| SYTDPYAQPPL [KMT2D_Y2378] | inactive: 0.608 |
| EVKAQYEDIAQ [KRT1_Y358] | inactive: 0.57 |
| TKVVHYWKWIK [KLK2_Y249_R250W] | inactive: 2.84 |
| QEIATYRRLQE [KRT14_Y415_L419Q] | inactive: 0.557 |
| NFSKMYCNPDA [KNL1_Y489_A486S_YF] | inactive: 0.681 |
| KIRDWYQRQRP [KRT14_Y151] | inactive: 0.561 |
| SFTDPYAQPPL [KMT2D_Y2378_YF] | inactive: 0.559 |
| DILASYLDKVR [KRT12_Y139_R135I] | inactive: 1.49 |
| SGGCSYGSGGG [KRT1_Y539_G537C] | inactive: 0.973 |
